About 540 (0.36%) of roughly 150,000 compounds showed an effect of 50% or more. Some of the results follow.
test system: Plasmodium falciparum; test: Primary screen in NF54 nanoGlo assay, in single point, at 2uM, 72h; a lower Z score goes with more inhibition; type: functional, Erythrocyte; conditions: timepoint 72 hour

SMILES | % Inhibition [%] | Z score
CC[C@@H](CO)NC(=O)c1ccccc1C(F)(F)F | -1 | 0.17
Cc1cccc(C(=O)Nc2ccc3c(c2)nc(Cn2cccn2)n3CC(C)C)c1 | -8 | 0.83
COc1cc(NC(=O)c2ccc(CN3C(=O)CNC3=O)cc2)c(OC)cc1Cl | -10 | 1.05
COc1ccc(C(=O)N2CC[C@@H]3COCCN(C)[C@@H]3C2)c(OC)c1 | 5 | -0.9
O=C(NCC1CCCCC1O)c1cnn2ccncc12 (centres undefined) | 41 | -5.86
CCn1c(CNc2cccc(C(=O)OC)c2)nc2cc(S(=O)(=O)N3CCCCC3)ccc21 | 12 | -1.42
O=C(NCc1cncc(C2CC2)c1)c1cscn1 | -5 | 0.59
Cn1cccc(C(=O)N2CC(Oc3cccnc3)C2)c1=O | -7 | 1.38
O=C(Cc1ccccc1O)NO[C@@H]1CCCCO1 | -1 | 0.15
CCC1CN(C(=O)NCc2ccnc(C)n2)CCC1c1ccccc1 (centres undefined) | -3 | 0.51
CC1=NS(=O)(=O)N(CC(=O)Nc2ccc(C(C)C)cc2)C=C1c1nc(-c2ccccc2)no1 | -1 | 0.16
Cc1ccc(C#N)c(N2CCN(C[C@H]3CN(C(C)C)CCO3)CC2)n1 | -6 | 0.94
Cc1noc(C)c1CCC(=O)Nc1c(C)noc1C | -13 | 1.24
CNC(=O)c1ccc(OCc2cnn(C)c2)c(OC)c1 | -13 | 2.43
C#Cc1cccc(NC(=O)CN(C)C(=O)c2cnc3[nH]nnc3c2)c1 | 5 | -0.74
CC(C)(C)C(=O)Nc1cc(S(C)(=O)=O)ccc1Cl | -2 | 0.15
CCC(NC(=O)c1ncoc1C)C(O)C(F)(F)F (centres undefined) | -4 | 0.68
CC(C)c1noc([C@H](C)Nc2ccc3c(c2)CCO3)n1 | -13 | 2.6
O=C(c1ccccc1)C(C(=O)c1ccccc1)[C@@H](c1ccccc1)c1nc2ccccc2[nH]c1=O | 2 | -0.26
CC[C@@](C)(CC(=O)OC)NCc1cnc(C)cn1 | -13 | 1.19
COC(=O)NC1CCN(c2ccccc2C(=O)N2CCC(C)CC2)CC1 | -1 | 0.08

SMILES | % Inhibition [%] | Z score
C=C(C)Cn1c(CN(C)C)nnc1N1CCC(C)(COC)CC1 | -2 | 0.31
CCOc1ccc(CN2CCCn3cccc3[C@H]2c2cc(F)ccc2F)cc1 | -6 | 1.2
COc1ccc(C(=O)N2CC[C@@H]3COCCN(C)[C@@H]3C2)cc1F | -1 | 0.1
O=C(Nc1ccccc1CCc1ccccn1)N1C[C@H]2CC[C@H]1C2 | -16 | 1.59
CC1=CC[C@H]2CN(c3nc(C(N)=O)cs3)C[C@H]2C1 | 2 | -0.42
Cc1cc(Cl)ccc1NC(=O)CN(C)S(=O)(=O)c1c[nH]c(C(=O)N2CCCCCC2)c1 | 8 | -0.81
O=C(O)C(CNC(=O)C1CC1C1CC1)Cc1ccccc1 (centres undefined) | -5 | 0.72
Cc1cnccc1OC1CCN(C(=O)[C@H](CO)NC(=O)C(C)C)CC1 | 5 | -1.08
O=c1ccc(S(=O)(=O)N2CCCCC2)cn1CCOc1ccccc1 | -6 | 1.27
COc1cc(CNn2cnnc2)ccc1OCc1c(F)cccc1Cl | -28 | 3.24
Cc1nnc2ccc(S(=O)(=O)Nc3cc(F)cc(F)c3)cn12 | 30 | 0
Cc1ccc2c(c1)C(=O)N(CCCC(=O)NCc1ccc(N3CCCN(C)CC3)nc1)C2=O | 2 | -0.29
Cc1cc(C)n(-c2cncc(NCCc3nc(C)no3)n2)n1 | -11 | 1.48
O=C(c1ccc(CC2CCN(Cc3cccc(F)c3)CC2)cc1)N1CCOCC1 | -4 | 0.78
CC(C)NC(=O)CCN(Cc1ccco1)C(=O)c1csc(Nc2cccc(Cl)c2Cl)n1 | 6 | -0.98
CCCCn1c(C(=O)NCC(C)C)cc2c(OCC)cccc21 | -11 | 1.35
O=C(Cc1n[nH]c(=O)c2cc(-c3ccc(F)cc3)nn12)NCc1ccc(F)cc1 | 1 | -0.19
O=C1NCC2(CCN(C(=O)C[C@@H](c3ccccc3)c3ccccc3F)CC2)O1 | -7 | 0.87
Cc1ccc2[nH]c(CN3CC[C@](O)(C4CC4)[C@@H](C)C3)c(C)c2c1 | -11 | 1.52
O=C(Nc1cc(-c2cccs2)no1)c1ccccc1F | -15 | 2.53
O=C(NC1CCOCC1)c1cccc(S(=O)(=O)N2CCCCCCC2)c1 | -10 | 0.95

Source: ChEMBL document CHEMBL4888484, “Replenishing the malaria drug discovery pipeline: Screening and hit evaluation of the MMV Hit Generation Library 1 (HGL1) against asexual blood stage Plasmodium falciparum ,using a nano luciferase reporter read-out” (2022)
